# Screen size: about 270,000 compounds; about 5,800 (2.1%) were called active. Inconclusive means that the source gave no clear call. Such entries were picked first, then a sample of the others. The call rests on the fitted dose curve; in most records, active means well fitted inhibition curve with a large enough effect; inconclusive means small, poorly fitted or top-dose-only effect; inactive means flat fitted curve, though single readings scatter. A potency beside an inconclusive call is a rough fit, not a confirmed value.
# Target: Microtubule-associated protein tau (Homo sapiens) (UniProt P10636)
# Assay: qHTS for Inhibitors of Tau Fibril Formation, Thioflavin T Binding; further: nearly all actives have a fitted effect of over 55% in size
# Details: recombinant tau K18 P301L (four-repeat tau fragment), heparin-induced fibrillization, ThT fluorescence; series mostly up to 57.4 µM; activity, negative = inhibition: at the top concentration
# Outline: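 Aggregation was driven by heparin (20 uM final) acting on recombinant tau […] bearing P301L in 100 mM sodium acetate pH 7; fibrils were detected with Thioflavin T.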
# On the % scale 0 is the no-effect control and ±100 the full control effect; potency means the concentration at half of the fitted maximal effect; tags describe the fitted curve by direction and shape.
# Chain of UniProt P10636 (P10636 whole entry, looked up): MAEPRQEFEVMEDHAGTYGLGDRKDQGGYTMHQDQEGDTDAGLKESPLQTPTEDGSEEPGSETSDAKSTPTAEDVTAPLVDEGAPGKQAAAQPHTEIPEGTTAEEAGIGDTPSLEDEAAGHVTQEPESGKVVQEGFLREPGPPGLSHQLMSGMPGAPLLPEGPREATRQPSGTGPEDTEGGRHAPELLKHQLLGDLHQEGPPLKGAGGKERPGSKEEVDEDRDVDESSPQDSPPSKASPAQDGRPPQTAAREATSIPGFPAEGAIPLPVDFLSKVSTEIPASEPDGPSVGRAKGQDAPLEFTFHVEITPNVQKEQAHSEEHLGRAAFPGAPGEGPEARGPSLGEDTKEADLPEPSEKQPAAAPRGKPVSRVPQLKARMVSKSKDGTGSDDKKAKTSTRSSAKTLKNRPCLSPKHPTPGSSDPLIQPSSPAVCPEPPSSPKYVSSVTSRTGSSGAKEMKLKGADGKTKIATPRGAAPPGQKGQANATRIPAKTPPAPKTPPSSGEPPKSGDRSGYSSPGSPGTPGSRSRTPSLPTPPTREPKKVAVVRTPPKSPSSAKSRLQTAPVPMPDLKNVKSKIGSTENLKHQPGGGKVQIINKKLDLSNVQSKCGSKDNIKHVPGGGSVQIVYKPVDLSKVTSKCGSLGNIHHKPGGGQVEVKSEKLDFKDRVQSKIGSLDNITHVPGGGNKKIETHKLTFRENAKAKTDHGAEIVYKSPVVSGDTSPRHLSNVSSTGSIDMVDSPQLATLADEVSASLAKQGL
Compound,"activity, negative = inhibition",Potency
C=C(C)CSc1nc(-c2ccccc2)cc(-c2ccc(OC)cc2)c1C#N,inactive: -10.9%,
Cc1cc(C)n(C(C)CC(=O)Nc2ccc(C)c(N(C)C)c2)n1 (configuration not stated),inactive: -0.854%,
COc1ccc(N2CCC(CNC(=S)Nc3c(C)cc(C)cc3C)C2)cc1 (configuration not stated),,"inconclusive: 15.8 µM [inhibitor, partial curve]"
COc1ccc(-n2c(C)cc(-c3cn4cccc(C)c4n3)c2C)cc1,,"inconclusive: 25.1 µM [inhibitor, partial curve]"
CCCC[C@@H]1C[C@H]1[C@@H](NC(=O)c1ccco1)c1ccc(Cl)cc1,,"inconclusive: 25.1 µM [inhibitor, partial curve]"
Cc1ccc(/C=N/n2cc(-c3ccccc3)[nH]c2=S)s1,,"inconclusive: 12.6 µM [inhibitor, partial curve]"
COc1ccc(CNC(=O)CCc2c(C)c3cc4c(C)c(C)oc4cc3oc2=O)cc1OC,inactive: -0.372%,
Cc1cc2ccccc2n1CCNC(=O)c1ccc(Br)cc1,,"inconclusive: 20 µM [inhibitor, single point]"
C=CCNC(=S)N1CCN(Cc2ccccc2)CC1,inactive: -8.04%,
Cc1nnc(N2CCOCC2)c2nn(-c3ccccc3)c(C)c12,inactive: 2.71%,
Clc1cccc(N/N=C/c2ccncc2)c1,,"inconclusive: 20 µM [inhibitor, single point]"
O=C(Nc1cccs1)Nc1c(F)cc(F)cc1Br,inactive: 5.55%,
COc1ccc(C)cc1Nc1cc(C)nc(C)n1,inactive: -0.412%,
CC(=O)c1ccc(N2CCN(C(=O)c3nn(Cc4ccccc4)c(=O)c4ccccc34)CC2)cc1,,"inconclusive: 12.6 µM [inhibitor, single point]"
N#CCCCCN1CCCC1,,"inconclusive: 15.8 µM [inhibitor, partial curve, poor fit]"
CCC(C)(C)n1nnnc1CN(Cc1ccco1)Cc1cc2cc3c(cc2[nH]c1=O)OCO3,,"inconclusive: 25.1 µM [inhibitor, partial curve]"
CC(Nc1c([N+](=O)[O-])c(=O)oc2ccccc12)C(Cl)c1ccccc1 (configuration not stated),,"inconclusive: 39.8 µM [inhibitor, single point]"
CC1S/C(=N/N=C/c2ccco2)N(Cc2ccccc2)C1=O (configuration not stated),inactive: -2.48%,
O=C(CCn1ccc2cc(S(=O)(=O)N3CCCC3)ccc21)NCc1ccccc1Br,inactive: 9.35%,
c1ccc(Cc2nnc3n2N=C(c2ccccc2)CS3)cc1,inactive: 1.96%,
Cc1ccc(Cn2ccc(NC(=O)c3noc4c3CCc3ccccc3-4)n2)cc1,inactive: -10.9%,
CC1CCCN(C(=O)c2ccc3nc[nH]c3c2)C1 (configuration not stated),inactive: -8.14%,
O=C(Nc1nc2ccc(F)cc2s1)C1=NN(c2ccccc2)C(=O)CC1,,"inconclusive: 12.6 µM [inhibitor, partial curve]"
N[C@H](CO)Cc1cnc[nH]1,inactive: -7.05%,

Compound,"activity, negative = inhibition",Potency
C#CCn1c(=NC(=O)c2ccc(Br)s2)sc2cccc(OC)c21,,"inconclusive: 8.91 µM [inhibitor, full curve, poor fit]"
O=C(Nc1ccc(F)cc1)C1CCCN(S(=O)(=O)c2cccc3cccnc23)C1 (configuration not stated),,"inconclusive: 2.24 µM [inhibitor, partial curve, poor fit]"
O=C(CCCN1C(=O)/C(=C/c2cccs2)SC1=S)Nc1ccccn1,inactive: 3.45%,
Cc1sc2nc(SCC(=O)NCCO)n(-c3ccccc3)c(=O)c2c1C,inactive: 1.1%,
COc1ccc(NC(C)=O)cc1NC(=O)CN1CCN(c2ccc(F)cc2)CC1,inactive: -3.85%,
O=C(OCC(=O)c1c[nH]c2ccccc12)c1cc(Br)ccc1O,,"inconclusive: 1.58 µM [inhibitor, full curve]"
CCC(=O)N1CCN(c2nc(-c3ccccc3)c3c(c2C#N)CCCC3)CC1,,"inconclusive: 20 µM [inhibitor, partial curve]"
COC(=O)c1cc(NC(=O)Cn2c(=O)cnc3ccccc32)cc(C(=O)OC)c1,inactive: -3.1%,
CCOc1ccc(/C=C/C2=Cc3c(sc(NC(=O)CSc4n[nH]c(N)n4)c3C#N)C(C)(C)C2)cc1,,active: 14.1 µM
COc1cccc(NC(=S)NN=C2CCC(C(C)(C)C)CC2)c1 (configuration not stated),inactive: -15.7%,
Cc1cc(Nc2cccc(C(F)(F)F)c2)nc2ccc(NC(=O)c3cccc(Cl)c3)cc12,,"inconclusive: 14.1 µM [inhibitor, partial curve, poor fit]"
O=C(CCCc1nc2ccccc2s1)NNC(=O)CCN1CCN(Cc2ccccc2)CC1,inactive: -7.25%,
COc1ccc(CCNC(=O)CSc2cn(Cc3cccc(C)c3)c3ccccc23)cc1OC,,"inconclusive: 17.8 µM [inhibitor, partial curve]"
Cc1ccc(Nc2c(-c3ccccn3)nc3cc(C)ccn23)cc1,,"inconclusive: 22.4 µM [inhibitor, partial curve, poor fit]"
NC(=O)CC(NSc1ccccc1[N+](=O)[O-])C(=O)O (configuration not stated),,"inconclusive: 20 µM [inhibitor, single point]"
Cc1ccn2c(=O)cc(COc3cccc(NC(=O)Nc4cccc(Cl)c4C)c3)nc2c1,,"inconclusive: 10 µM [inhibitor, partial curve]"
O=C(CSCc1ccccc1Br)N/N=C/c1ccc(OCC(=O)N2CCCCC2)cc1,,"inconclusive: 15.8 µM [inhibitor, partial curve, poor fit]"
Cc1cc(-c2[nH]nc3c2C(c2ccsc2)C(C#N)=C(N)O3)c(C)s1 (configuration not stated),,"inconclusive: 31.6 µM [inhibitor, single point]"
CCOC(=O)/C(=C/c1ccc(OC(=O)c2ccncc2)cc1)C(C)=O,,"inconclusive: 11.2 µM [inhibitor, partial curve]"
CCOC(=O)N1CCN(C(=O)c2ccc(CNS(=O)(=O)c3ccc(C)cc3)cc2)CC1,inactive: -20.1%,
O=C(CSc1nc(-c2ccc(F)cc2)[nH]c1-c1ccc(F)cc1)Nc1ccc2c(c1)OCO2,,"inconclusive: 3.55 µM [inhibitor, single point]"
COc1cc(OC)c(N(C)S(=O)(=O)c2cccc(C(=O)OCC(=O)c3c[nH]c4ccccc34)c2)cc1Cl,inactive: 9.94%,
CC(CCc1ccccc1)NC(=O)Cn1c(=O)nc(-c2ccccc2)c2ccccc21 (configuration not stated),,"inconclusive: 39.8 µM [inhibitor, single point]"

# Source: PubChem BioAssay AID1460 (National Center for Advancing Translational Sciences (NCATS), 2008)
